The source of these data is article PMC2191977 (The Journal of Experimental Medicine, 1995).

Assay in all cases: flow cytometry on cells
One assay deals with T1, B7 K173E (mouse, UniProt Q00609 38-306, K173E).
T1 sequence (looked up): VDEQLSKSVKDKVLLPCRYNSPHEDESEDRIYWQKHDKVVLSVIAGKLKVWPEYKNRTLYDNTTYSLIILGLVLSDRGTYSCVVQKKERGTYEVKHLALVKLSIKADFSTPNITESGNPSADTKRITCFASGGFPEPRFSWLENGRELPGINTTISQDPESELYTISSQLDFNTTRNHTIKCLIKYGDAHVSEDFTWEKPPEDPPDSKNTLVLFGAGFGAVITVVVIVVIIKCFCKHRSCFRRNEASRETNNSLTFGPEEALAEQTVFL

A further assay concerns the target T2, B7 P172A (mouse, UniProt Q00609 38-306, P172A).
T2 sequence (looked up): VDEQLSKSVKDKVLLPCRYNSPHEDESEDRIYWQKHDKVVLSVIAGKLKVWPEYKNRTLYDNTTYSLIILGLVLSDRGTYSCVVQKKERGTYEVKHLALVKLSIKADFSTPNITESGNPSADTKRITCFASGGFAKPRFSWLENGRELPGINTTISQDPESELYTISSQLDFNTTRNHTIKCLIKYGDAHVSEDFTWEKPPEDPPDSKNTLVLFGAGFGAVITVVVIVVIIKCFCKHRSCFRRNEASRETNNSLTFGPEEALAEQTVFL

For a further assay, the target named is T3, B7 LE/VD (L179V, E180D) (mouse, UniProt Q00609 38-306, L179E180>VD).
T3 sequence (looked up): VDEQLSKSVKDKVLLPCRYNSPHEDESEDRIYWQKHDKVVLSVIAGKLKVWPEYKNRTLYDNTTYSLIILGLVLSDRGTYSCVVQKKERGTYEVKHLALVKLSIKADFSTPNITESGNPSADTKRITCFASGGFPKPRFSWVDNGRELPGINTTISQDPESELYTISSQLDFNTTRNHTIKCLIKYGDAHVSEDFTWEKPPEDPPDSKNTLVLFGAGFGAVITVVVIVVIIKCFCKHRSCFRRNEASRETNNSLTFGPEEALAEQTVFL

Assay [1] concerns the target T4, B7 QDP/LEH (Q194L, D195E, P196H) (mouse, UniProt Q00609 38-306, Q194D195P196>LEH).
T4 sequence (looked up): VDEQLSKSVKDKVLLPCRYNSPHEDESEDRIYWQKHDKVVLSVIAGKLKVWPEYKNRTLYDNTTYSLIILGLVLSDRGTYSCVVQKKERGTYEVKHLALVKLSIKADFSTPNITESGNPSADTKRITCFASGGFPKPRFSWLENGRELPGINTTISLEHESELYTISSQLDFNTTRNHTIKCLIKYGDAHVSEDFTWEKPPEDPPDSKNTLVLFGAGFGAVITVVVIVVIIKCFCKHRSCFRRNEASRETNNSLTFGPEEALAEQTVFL

In another assay the target is T5, B7 L179V (mouse, UniProt Q00609 38-306, L179V).
T5 sequence (looked up): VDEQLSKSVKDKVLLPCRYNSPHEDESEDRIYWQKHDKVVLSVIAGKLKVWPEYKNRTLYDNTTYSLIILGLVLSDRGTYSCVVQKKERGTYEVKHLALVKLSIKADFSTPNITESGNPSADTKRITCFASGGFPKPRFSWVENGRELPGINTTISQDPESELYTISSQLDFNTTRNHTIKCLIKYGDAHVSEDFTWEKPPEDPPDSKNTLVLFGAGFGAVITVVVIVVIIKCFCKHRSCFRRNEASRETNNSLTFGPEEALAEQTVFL

The next assay deals with T6, B7 R175S (mouse, UniProt Q00609 38-306, R175>S (CGC>AGC)).
T6 sequence (looked up): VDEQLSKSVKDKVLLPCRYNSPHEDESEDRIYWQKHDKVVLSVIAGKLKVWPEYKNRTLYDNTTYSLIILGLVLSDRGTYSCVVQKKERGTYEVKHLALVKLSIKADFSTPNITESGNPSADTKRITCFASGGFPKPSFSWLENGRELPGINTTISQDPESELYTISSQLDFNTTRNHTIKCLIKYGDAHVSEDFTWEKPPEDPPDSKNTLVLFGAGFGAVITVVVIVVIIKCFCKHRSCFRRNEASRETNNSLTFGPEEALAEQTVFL

B1: CTLA4Ig (Fc fusion)
chain: not shown
As to B1, the “% wild-type B7 binding (normalised to anti-B7 mAb 10.16A.1)” value in the assay with B7 K173E was 98%; with B7 P172A, 3%; with B7 LE/VD (L179V, E180D) it was 51%; in assay [1] it was 13%; in the assay with B7 L179V it was 40%; with B7 R175S, 42%. Moreover, the “MF (mean fluorescence, control subtracted)” value was found to be 772 MF in the assay with B7 K173E; 8 MF with B7 P172A; 281 MF with B7 LE/VD (L179V, E180D); 36 MF in assay [1]; 274 MF with B7 L179V; 334 MF with B7 R175S.
